The record followed here is paper PMC9911399, “Two distinct binding modes provide the RNA-binding protein RbFox with extraordinary sequence specificity”.

First the molecules themselves.
B1: UAUCGUC (DNA:RNA)
RNA: GGGAGACCGGAAUUCAGAUUGUCCUAUCGUCUUAAAUCCCGUCGUAGCCACCA
DNA 1: CAATCTGAATTCCGGTCTCCC
DNA 2: TGGTGGCTACGACGGGATT
B2: UAACGCG (DNA:RNA)
RNA: B1 RNA with U27A, U30C, C31G
DNA 1: CAATCTGAATTCCGGTCTCCC
DNA 2: TGGTGGCTACGACGGGATT
B3: GAAAGUA (DNA:RNA)
RNA: B1 RNA with U25G, U27A, C28A, C31A
DNA 1: CAATCTGAATTCCGGTCTCCC
DNA 2: TGGTGGCTACGACGGGATT
B4: UCAAAAU (DNA:RNA)
RNA: B1 RNA with A26C, U27A, C28A, G29A, U30A, C31U
DNA 1: CAATCTGAATTCCGGTCTCCC
DNA 2: TGGTGGCTACGACGGGATT
B5: UAUGUCG (DNA:RNA)
RNA: B1 RNA with C28G, G29U, U30C, C31G
DNA 1: CAATCTGAATTCCGGTCTCCC
DNA 2: TGGTGGCTACGACGGGATT
B6: GGCUUAG (DNA:RNA)
RNA: GGGAGACCGGAAUUCAGAUUGUCCGGCUUAGUUAAAUCCCGUCGUAGCCACCA
DNA 1: CAATCTGAATTCCGGTCTCCC
DNA 2: TGGTGGCTACGACGGGATT
B7: GUUCAUA (DNA:RNA)
RNA: B1 RNA with U25G, A26U, G29A, C31A
DNA 1: CAATCTGAATTCCGGTCTCCC
DNA 2: TGGTGGCTACGACGGGATT
B8: GGAAUCC (DNA:RNA)
RNA: B6 RNA with C27A, U28A, A30C, G31C
DNA 1: CAATCTGAATTCCGGTCTCCC
DNA 2: TGGTGGCTACGACGGGATT
B9: AGCUUAA (DNA:RNA)
RNA: B6 RNA with G25A, G31A
DNA 1: CAATCTGAATTCCGGTCTCCC
DNA 2: TGGTGGCTACGACGGGATT
B10: GUUAAGU (DNA:RNA)
RNA: B6 RNA with G26U, C27U, U28A, U29A, A30G, G31U
DNA 1: CAATCTGAATTCCGGTCTCCC
DNA 2: TGGTGGCTACGACGGGATT
B11: CUGUGAC (DNA:RNA)
RNA: B6 RNA with G25C, G26U, C27G, U29G, G31C
DNA 1: CAATCTGAATTCCGGTCTCCC
DNA 2: TGGTGGCTACGACGGGATT
B12: AAACCGA (DNA:RNA)
RNA: B1 RNA with U25A, U27A, G29C, U30G, C31A
DNA 1: CAATCTGAATTCCGGTCTCCC
DNA 2: TGGTGGCTACGACGGGATT
B13: AUCCGGG (DNA:RNA)
RNA: B6 RNA with G25A, G26U, U28C, U29G, A30G
DNA 1: CAATCTGAATTCCGGTCTCCC
DNA 2: TGGTGGCTACGACGGGATT
B14: CCAGAAG (DNA:RNA)
RNA: B6 RNA with G25C, G26C, C27A, U28G, U29A
DNA 1: CAATCTGAATTCCGGTCTCCC
DNA 2: TGGTGGCTACGACGGGATT
B15: CUAAGCC (DNA:RNA)
RNA: B1 RNA with U25C, A26U, U27A, C28A, U30C
DNA 1: CAATCTGAATTCCGGTCTCCC
DNA 2: TGGTGGCTACGACGGGATT
B16: UGGGUAA (DNA:RNA)
RNA: B6 RNA with G25U, C27G, U28G, G31A
DNA 1: CAATCTGAATTCCGGTCTCCC
DNA 2: TGGTGGCTACGACGGGATT
B17: UGACCCC (DNA:RNA)
RNA: B1 RNA with A26G, U27A, G29C, U30C
DNA 1: CAATCTGAATTCCGGTCTCCC
DNA 2: TGGTGGCTACGACGGGATT
B18: UAGGGUG (DNA:RNA)
RNA: B1 RNA with U27G, C28G, C31G
DNA 1: CAATCTGAATTCCGGTCTCCC
DNA 2: TGGTGGCTACGACGGGATT
B19: UACCCAC (DNA:RNA)
RNA: B1 RNA with U27C, G29C, U30A
DNA 1: CAATCTGAATTCCGGTCTCCC
DNA 2: TGGTGGCTACGACGGGATT
B20: CUCAAAA (DNA:RNA)
RNA: B6 RNA with G25C, G26U, U28A, U29A, G31A
DNA 1: CAATCTGAATTCCGGTCTCCC
DNA 2: TGGTGGCTACGACGGGATT

Substitutions are numbered along the chain they refer to; changes in the protein carry UniProt numbers. The list shows a part of the results.

The test addresses T1, RBFOX1 RRM RbFoxmut (Fox-RRM*) (Homo sapiens, UniProt Q9NWB1 109-208, R118D;E147R;N151S;E152T).
T1 sequence: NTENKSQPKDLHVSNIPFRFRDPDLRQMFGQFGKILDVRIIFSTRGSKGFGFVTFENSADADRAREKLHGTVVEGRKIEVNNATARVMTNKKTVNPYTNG
In words: EMSA; HiTS-Eq, 1 nM pool, 10 min; buffer printed only for the single-RNA assays: 10 mM Tris pH 7.5, 150 mM NaCl, 3.4 mM EDTA, 0.001% NP-40, 30 C. The conditions noted are these: tags: His6 N-terminal (pET28a); label: 5' 32P. Summed up:
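Purified RbFox RRM, wild type or mutant, was incubated for 10 min in 50 µL with 1 nM of a 5′-radiolabelled RNA pool carrying 7 randomized nucleotides, whose flanks were annealed to DNA oligonucleotides, over a series of increasing protein concentrations. Unbound RNA was resolved on 8% native PAGE, cut out, reverse-transcribed, barcoded by PCR and sequenced on an Illumina HiSeq 2500. Relative association constants were derived from changes in read counts for each RNA species versus the control reaction and normalised to the cognate motif.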
(In general: A gel shift assay detects complexes by their altered migration in electrophoresis.)
B1: the binding signal was 0.0704 KA relative to UGCAUGU.
For B2, the binding signal is 0.105 KA relative to UGCAUGU.
Then B3, with 0.116 KA relative to UGCAUGU; and B4, with 0.0761 KA relative to UGCAUGU; and B5, with 0.133 KA relative to UGCAUGU.
Then B6, with 0.0838 KA relative to UGCAUGU; and B7, with 0.116 KA relative to UGCAUGU; and B8, with 0.184 KA relative to UGCAUGU.
Then B9, with 0.11 KA relative to UGCAUGU.
For B10, the binding signal is 0.128 KA relative to UGCAUGU.
Then B11, with 0.0946 KA relative to UGCAUGU; and B12, with 0.0755 KA relative to UGCAUGU; and B13, with 0.0531 KA relative to UGCAUGU.
Then B14, with 0.116 KA relative to UGCAUGU; and B15, with 0.12 KA relative to UGCAUGU; and B16, with 0.124 KA relative to UGCAUGU.
Then B17, with 0.0384 KA relative to UGCAUGU; and B18, with 0.149 KA relative to UGCAUGU; and B19, with 0.102 KA relative to UGCAUGU.
As to B20, the binding signal was 0.0819 KA relative to UGCAUGU.
